Measurements reported in PubChem BioAssay (NCATS).
Results filed as inconclusive are left out. Not every entry of the source has a single result; some have several. The list is limited to them. An entry can have further records. Values given together repeat one measurement (runs, samples, wells, individuals or studies).

Assay: qHTS Assay for Lipid Storage Modulators (AID 1519)
Settings: Drosophila S3 cells, BODIPY lipid droplet/cell ratio, laser cytometry, cells loaded with oleic acid
Outline: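 Cells seeded at 5,000 per well were treated with compounds over a concentration series and loaded with oleic acid (400 uM, as added). Lipid droplet fluorescence (488 nm excitation, 500-530 nm channel) was read by laser-scanning cytometry and normalized to 20 uM Triacsin C.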

## O=C(O)c1cc(=O)c2ccccc2[nH]1
Measured here: cell count channel max response
  max response: 1.51, 0.0631, 20.5, -13.8% [separate samples]
Measured here: lipid channel max response
  max response: 16.6, 10.3, 23.2, -9.44% [separate samples]
